Among all 410,000 compounds or so, about 5,000 (1.2%) were called active. Inconclusive means that the source gave no clear call. Such entries were picked first, then a sample of the others. The call rests on the fitted dose curve; in most records, active means well fitted inhibition curve with a large enough effect; inconclusive means small, poorly fitted or top-dose-only effect; inactive means no such curve, though single readings can be large or run the other way. Where the call is inconclusive, the potency comes from a doubtful curve fit.
Assay: qHTS for Inhibitors of TGF-b; further: nearly all actives have a fitted effect of over 65% in size
Conditions: HepG2 CAGA-GFP TGF-b/SMAD3 reporter, GFP fluorescence, 18 h, TGF-beta stimulated, 500 pg/mL final; series mostly up to 46.1 µM; activity, negative = inhibition: at the top concentration
Outline: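 GFP signal (ex488/em500-530) from TGF-beta-stimulated HEPG2 CAGA-GFP cells, 500 pg/mL final, 18 h at 37 degrees C in DMEM plus 1% FBS, normalized to unstimulated and DMSO-stimulated controls.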
On the % scale 0 is the no-effect control and ±100 the full control effect; potency means the concentration at half of the fitted maximal effect; tags describe the fitted curve by direction and shape.

SMILES	Potency	activity, negative = inhibition
O=C(c1ccc(F)cc1Cl)N(c1ccccn1)C1CCCCC1	inconclusive: 25.1 µM [inhibitor, partial curve, poor fit]	–
CC1(C)CC(=O)C=C(c2ccc(-c3ccc(OC(F)(F)F)cc3)cc2)C1=O	–	inactive: 5.49%
CC(C)c1ccc(N(CC(=O)NCc2ccc(F)cc2)C(=O)c2snc(C(N)=O)c2N)cc1	inconclusive: 10 µM [inhibitor, partial curve, poor fit]	–
COc1cc(CN2CCC(CO)(Cc3cccc(C(F)(F)F)c3)CC2)ccc1F	inconclusive: 35.5 µM [inhibitor, single point]	–
CCc1c(C)nc(Nc2nc(C)c3cc(OC)ccc3n2)[nH]c1=O	–	inactive: -14.8%
CC(C)(C)NC(=S)Nc1ccc(Nc2ccccc2)cc1	inconclusive: 20 µM [inhibitor, single point]	–
Cc1cc(Cl)ccc1NC(=O)CCS(=O)(=O)c1ccc2c(c1)CC(C)N2C(=O)C1CC1 (configuration not stated)	inconclusive: 12.6 µM [inhibitor, partial curve, poor fit]	–
O=C1c2ccccc2C(Nc2ccccc2F)N1c1cccnc1 (configuration not stated)	inconclusive: 10 µM [inhibitor, single point]	–
Cc1ccc(C)c(N(CC(=O)Nc2ccccc2C(=O)NCc2ccco2)S(=O)(=O)c2ccccc2)c1	–	inactive: 24.2%
CN1c2ccccc2C(C)(C)[C@]12C=Cc1cc(O)ccc1O2	active: 17.8 µM	–
CCn1c(C(=O)N2CCc3ccccc3C2)cc2oc3ccccc3c21	inconclusive: 10 µM [inhibitor, partial curve, poor fit]	–
Cc1ccc(-c2ccc(=O)n(Cc3ccc(F)cc3Cl)n2)cc1	inconclusive: 35.5 µM [inhibitor, single point]	–
COc1cc([C@@H]2C[C@H]3CN(c4ccccc4)C(=O)[C@]34CCCN24)cc(OC)c1OC	inconclusive: 10 µM [inhibitor, partial curve, poor fit]	–
Brc1ccc(COc2cccc3cccnc23)cc1	inconclusive: 35.5 µM [inhibitor, single point]	–
Cc1cc(C)cc(OCC(=O)NN2Cc3ccccc3C2=N)c1	inconclusive: 35.5 µM [inhibitor, single point]	–
O=C(Nc1ccc(F)cc1)c1sc2cc(C(F)(F)F)cnc2c1-c1cccs1	–	inactive: -24.2%
CC1(C)CC(Cc2ccc(C(=O)c3ccccc3)cc2)N(C(=O)OC(C)(C)C)N1 (configuration not stated)	inconclusive: 35.5 µM [inhibitor, single point]	–
CN(C)c1ccc(C(O)P(=O)(OCc2ccccc2)c2ccc(N(C)C)cc2)cc1 (configuration not stated)	–	inactive: -4.77%
O=C(c1ccc(Cl)c([N+](=O)[O-])c1)N1CCN(c2ccccc2)CC1	inconclusive: 14.1 µM [inhibitor, single point]	–
FC(F)(F)c1cc(-c2ccccc2)nc(N2CCCCC2)n1	inconclusive: 35.5 µM [inhibitor, single point]	–
CCc1ccc(NC(=O)C2CCN(c3nn4c(=O)cc(C)nc4s3)CC2)cc1	inconclusive: 3.16 µM [inhibitor, full curve]	–
COCCNC(=O)c1cnc2sc(N3CCC(C)CC3)nn2c1=O	–	inactive: 1.23%
CCN(C(=O)c1cnc2ccc(C)cn2c1=O)c1ccccc1	–	inactive: 18.1%

SMILES	Potency	activity, negative = inhibition
O=C(Nc1ccc(OC(F)(F)F)cc1)Nc1cccnc1	–	inactive: 0.514%
CCSc1nc(-c2ccco2)ccc1C#N	–	inactive: -5.86%
COc1cccc(NC(=O)CN(C)C(=O)c2oc3c(ccc4ccccc43)c2C)c1	inconclusive: 35.5 µM [inhibitor, partial curve, poor fit]	–
CCOC(=O)c1c(C)[nH]c(C)c1S(=O)(=O)N1CCCC(C(=O)N2CCN(c3cccc(C)c3C)CC2)C1 (configuration not stated)	inconclusive: 7.08 µM [inhibitor, partial curve, poor fit]	–
COc1ccc(NC(=S)N2CCC(C(=O)c3ccc(F)cc3)CC2)cc1	inconclusive: 35.5 µM [inhibitor, single point]	–
Cc1ccc(C(CC(=O)N2CCNCC2)c2ccccc2)c(O)c1C (configuration not stated)	inconclusive: 11.2 µM [inhibitor, partial curve]	–
COc1ccc(-c2nc3c4ccccc4ccn3c2Cc2ccccc2)cc1OC	inconclusive: 12.6 µM [inhibitor, single point]	–
Cc1ccc(SCCNC(=S)Nc2cc(C)cc(C)c2)cc1	inconclusive: 35.5 µM [inhibitor, single point]	–
Cc1ccc2nc(NC(=O)C3CCN(C(=O)c4ccc(F)cc4)CC3)sc2c1	inconclusive: 0.112 µM [inhibitor, full curve, poor fit]	–
COc1ccc(C2SCCN2C(=S)Nc2cccc(Cl)c2)cc1 (configuration not stated)	inconclusive: 35.5 µM [inhibitor, partial curve, poor fit]	–
Cc1cc(C)cc(C(=O)NC(CC(N)=O)c2ccc(NCCN3CCCC3)c([N+](=O)[O-])c2)c1 (configuration not stated)	–	inactive: -1.82%
Cc1ccc(N2CCOCC2)c2c1C(=O)c1ccccc1C2=O	–	inactive: 7.89%
CCCOc1cccn2c(N(C=O)Cc3ccc(OC)cc3)c(CC)nc12	–	inactive: -23.5%
CN(C)CCCNC(=O)c1ccc(-c2nc(-c3ccc(Cl)cc3)cs2)cc1	inconclusive: 35.5 µM [inhibitor, single point]	–
COc1ccc(Br)cc1CN1C(=O)c2ccccc2C1C(=O)NC1CCCCCC1 (configuration not stated)	–	inactive: -15%
CCCc1cc(-c2n[nH]c(=S)n2C(C)c2ccccc2)cs1 (configuration not stated)	inconclusive: 35.5 µM [inhibitor, single point]	–
CCc1nc(SCc2ccc(Br)cc2)n[nH]1	inconclusive: 22.4 µM [inhibitor, single point]	–
Cc1cccc(-c2nnc(C3CCN(S(=O)(=O)c4cccc(Cl)c4)CC3)o2)c1	inconclusive: 10 µM [inhibitor, partial curve, poor fit]	–
Cc1ccc(NC(=O)c2ccc3c(c2)OCCO3)cc1	inconclusive: 17.8 µM [inhibitor, single point]	–
COc1ccc(NC(=O)CN(C)C(=O)C(C)Sc2ccccc2)cc1 (configuration not stated)	inconclusive: 0.126 µM [inhibitor, full curve, poor fit]	–
CCCCN(CCCNC(=O)c1cc(Nc2ccc(OC)c(OC)c2)nc2ccccc12)Cc1ccccc1	inconclusive: 35.5 µM [inhibitor, single point]	–
COc1ccc(S(=O)(=O)NCCc2csc(-c3ccc(F)cc3)n2)cc1F	inconclusive: 12.6 µM [inhibitor, single point]	–
CC(C)(C)OC(=O)NCc1ccc(NC(=O)c2nc[nH]c2C(=O)N[C@@H](Cc2ccccc2)C(=O)OC(C)(C)C)cc1	inconclusive: 10 µM [inhibitor, partial curve, poor fit]	–

SMILES	Potency	activity, negative = inhibition
Cc1ccc2nsnc2c1NC(=O)c1sc2ccccc2c1Cl	inconclusive: 0.501 µM [inhibitor, partial curve, poor fit]	–
CCOC(=O)C1=C(C)N=C2SCCC(=O)N2C1c1ccc(OCc2ccccc2)cc1 (configuration not stated)	inconclusive: 5.01 µM [inhibitor, full curve, poor fit]	–
Cc1ccc(C)c(S(=O)(=O)N2CCCOC2CNC(=O)C(=O)NCCc2ccccc2)c1 (configuration not stated)	–	inactive: -23.9%
O=C(NC(Cc1ccccc1)C(=O)O)NC12CC3CC(CC(C3)C1)C2 (configuration not stated)	–	inactive: -0.468%
O=C(N=Nc1c(O)[nH]c2ccc(Br)cc12)c1ccco1	–	inactive: -5.86%
COc1ccccc1Nc1c2ccccc2nc2ccccc12	inconclusive: 10 µM [inhibitor, partial curve, poor fit]	–
Cc1ccc(CN(CC(O)COc2cccc3[nH]cc(C)c23)C(C)(C)C)cc1 (configuration not stated)	inconclusive: 35.5 µM [inhibitor, single point]	–
Cc1cccc(OCC(=O)N/N=C/c2cc([N+](=O)[O-])ccc2N2CCOCC2)c1	inconclusive: 28.2 µM [inhibitor, single point]	–
CCSC1=NC(C)(C)C=C(/C=C/c2ccc(Cl)cc2Cl)N1	inconclusive: 17.8 µM [inhibitor, partial curve, poor fit]	–
Cc1cc(N2CCCCCC2)n2nc(C)c(-c3ccccc3)c2n1	–	inactive: -3.01%
FC(F)(F)c1nc(N2CCCC2)ncc1-c1nnnn1-c1ccc(Cl)cc1	inconclusive: 35.5 µM [inhibitor, single point]	–
CCc1ccc(CN(Cc2cn[nH]c2-c2ccc(OC)cc2)C(=O)Nc2cc(Cl)ccc2OC)cc1	inconclusive: 17.8 µM [inhibitor, single point]	–
COC(=O)c1c(NC(=O)CCCOc2cccc(C)c2)sc2c1C(C(=O)OC)CC2 (configuration not stated)	inconclusive: 35.5 µM [inhibitor, single point]	–
Fc1cccc(COc2ccccc2CNc2ccccc2)c1	inconclusive: 35.5 µM [inhibitor, single point]	–
N#C/C(=C/c1cccnc1)c1ccccc1	–	inactive: -3.83%
Cc1cc(N2CCN(c3ccccc3)CC2)nc2ccccc12	inconclusive: 35.5 µM [inhibitor, partial curve, poor fit]	–
COc1ccc(C(=O)Nc2cccc(N(C)S(C)(=O)=O)c2)cc1OC	–	inactive: -9.7%
CCC(Sc1nc2ccccc2c(=O)n1CCc1ccc(OC)c(OC)c1)C(=O)N(CC)CC (configuration not stated)	inconclusive: 12.6 µM [inhibitor, partial curve, poor fit]	–
CCOC(=O)c1c(NC(=O)c2ccc(S(=O)(=O)N(CC(C)C)CC(C)C)cc2)sc2c1CCN(C(=O)OCC)C2	–	inactive: 11%
CCC(=O)N(CCC(c1ccccc1)c1ccc2c(c1)OCO2)Cc1ccc(OC(C)C)cc1 (configuration not stated)	inconclusive: 35.5 µM [inhibitor, single point]	–
CC1(C)CC2(C)OC(=N)C1(C#N)C2(C#N)C#N (configuration not stated)	active: 15.8 µM	–

Source: PubChem BioAssay AID588855 (National Center for Advancing Translational Sciences (NCATS), 2011)
